Measured values published in PubChem BioAssay AID720708 (National Center for Advancing Translational Sciences (NCATS), 2013).
The campaign covered roughly 360,000 compounds. About 660 (0.18%) were called active. Inconclusive results, whose numbers are uncertain, are shown with a selection of clear calls. Calls come from the whole dose curve; as a rule, active = well fitted inhibition curve with a large enough effect; inconclusive = small, poorly fitted or top-dose-only effect; inactive = no such curve, though single readings can be large or run the other way. Potencies of inconclusive entries are left out as doubtful fits.
% is set by controls: 0 for no effect and ±100 for the full control effect; potency is the fitted concentration of half-maximal effect; tags give direction and shape of the fitted curve.
Note: nearly all actives have a fitted effect of over 45% in size.

Each molecule was assayed against Rap guanine nucleotide exchange factor 4 (Homo sapiens) (UniProt Q8WZA2) (assay: qHTS for Antagonist of cAMP-regulated guanine nucleotide exchange factor 2 (EPAC2): primary screen). Conditions: EPAC2 GEF exchange of Rap1B-BODIPY-GDP, fluorescence; activity, negative = inhibition: at 114 µM (top of the series) unless noted.
Sequence of UniProt Q8WZA2 (Q8WZA2 whole entry, looked up): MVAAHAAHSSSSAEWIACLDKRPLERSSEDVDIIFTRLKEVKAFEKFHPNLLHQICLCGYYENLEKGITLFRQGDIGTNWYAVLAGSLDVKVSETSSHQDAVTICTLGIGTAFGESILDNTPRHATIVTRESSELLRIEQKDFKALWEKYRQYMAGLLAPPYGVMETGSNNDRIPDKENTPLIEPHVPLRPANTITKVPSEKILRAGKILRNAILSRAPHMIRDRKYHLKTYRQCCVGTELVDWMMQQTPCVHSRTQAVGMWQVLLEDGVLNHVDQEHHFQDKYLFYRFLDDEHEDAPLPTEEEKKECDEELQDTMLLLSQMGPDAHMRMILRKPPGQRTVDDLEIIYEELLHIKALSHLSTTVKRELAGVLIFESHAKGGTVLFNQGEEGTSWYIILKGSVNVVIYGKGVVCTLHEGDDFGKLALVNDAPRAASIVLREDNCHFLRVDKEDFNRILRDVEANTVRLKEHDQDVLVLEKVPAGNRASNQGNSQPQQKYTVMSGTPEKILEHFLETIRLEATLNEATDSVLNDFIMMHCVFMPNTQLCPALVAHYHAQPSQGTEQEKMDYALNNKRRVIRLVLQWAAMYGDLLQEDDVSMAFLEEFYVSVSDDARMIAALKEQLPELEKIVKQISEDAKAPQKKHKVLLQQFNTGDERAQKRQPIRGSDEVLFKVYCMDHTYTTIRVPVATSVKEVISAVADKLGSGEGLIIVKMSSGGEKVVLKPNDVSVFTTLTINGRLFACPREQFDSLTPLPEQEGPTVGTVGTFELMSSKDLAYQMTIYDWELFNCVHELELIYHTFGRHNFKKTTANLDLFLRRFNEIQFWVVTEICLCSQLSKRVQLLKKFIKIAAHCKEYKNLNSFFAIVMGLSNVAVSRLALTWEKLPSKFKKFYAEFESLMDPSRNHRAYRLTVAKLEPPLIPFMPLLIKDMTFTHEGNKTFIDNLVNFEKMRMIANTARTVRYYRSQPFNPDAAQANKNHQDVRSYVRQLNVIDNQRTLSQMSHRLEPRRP
In the case of `CCOC(=O)c1c(-c2ccc(C)s2)csc1N`, the Potency is reported as inconclusive [inhibitor, partial curve].
`CC(c1ccccc1C(=O)O)c1cc(F)cc2ccccc12` (stereo not drawn) was tested, and the Potency was inconclusive [inhibitor, partial curve].
For `COc1cc2c3c(c1)C(C)CC(C)(C)N3C(=O)C2=O` (stereo not drawn), the Potency was inconclusive [inhibitor, single point].
For `CC(=O)CCc1oc2ccc(C)cc2c1-c1ccccc1`, the Potency was inconclusive [inhibitor, partial curve].
`CC(OC(=O)CCN=C1NS(=O)(=O)c2ccccc21)C(=O)Nc1ccc(F)c(F)c1F` (stereo not drawn) was tested, and the Potency was inconclusive [inhibitor, single point].
With `CC(C)c1ccc(C(O)Cc2nc3ccccc3n2C)cc1` (stereo not drawn) the “activity, negative = inhibition” value was inactive: -0.233%.
For `Nc1nc(-c2ccccc2)c(CCCOc2ccc(NC(=O)CBr)cc2)c(=O)[nH]1`, the “activity, negative = inhibition” value was inactive: -1.68%.
In the case of `COc1ccc(N2CCN(c3ccc(N4C(=O)CC(C)C4=O)cc3[N+](=O)[O-])CC2)cc1` (stereo not drawn), the Potency is reported as inconclusive [inhibitor, partial curve].
`COCCOC(=O)C1=C(C)OC(N)=C(C#N)C1c1cc2cccc(C)c2nc1Cl` (stereo not drawn) was tested, and the Potency was inconclusive [inhibitor, single point].
With `O=C1N=C(N2CCOCC2)SC1=Cc1ccco1` the “activity, negative = inhibition” value was inactive: -3.24%.
In the case of `O=C1c2c(Br)c(Br)c(Br)c(Br)c2C(=O)N1c1ccccn1`, the Potency is reported as inconclusive [inhibitor, single point].
`NC(=O)C(=O)N/N=C/c1c2ccccc2cc2ccccc12` was tested, and the Potency was inconclusive [inhibitor, partial curve].
In the case of `O=C(NCCc1ccccc1)c1cccc(S(=O)(=O)N2CCCCC2)c1`, the Potency is reported as inconclusive [inhibitor, single point].
`COc1ccc(C2CC(c3cccs3)=NN2C(=O)CCl)cc1OC` (stereo not drawn) was tested, and the Potency was inconclusive [inhibitor, partial curve].
In the case of `Cc1c(C(=O)NNC(=S)Nc2ccc(S(N)(=O)=O)cc2)oc2ccccc12`, the Potency is reported as inconclusive [inhibitor, partial curve].
`O=C(Nc1ccccc1-c1ccccc1)c1ccccc1Br` was tested, and the Potency was inconclusive [inhibitor, partial curve].
For `COc1cc2ccccc2cc1C(=O)N(CCN(C)C)c1nc2ccc(Br)cc2s1`, the Potency was inconclusive [inhibitor, full curve].
`COc1cc(-c2nnc(CSc3nnc(Nc4ccc(C(C)C)cc4)s3)o2)cc(OC)c1OC` was tested, and the Potency was inconclusive [inhibitor, partial curve].
In the case of `CC1CC2=C(C(=O)O1)C(c1ccc(Cl)cc1)Nc1ccccc1N2` (stereo not drawn), the Potency is reported as inconclusive [inhibitor, partial curve, poor fit].
For `N#CC(Sc1ccccn1)c1ccc(Cl)cc1` (stereo not drawn), the Potency was inconclusive [inhibitor, partial curve].
`Cc1ccc(/C=N/N(C)S(=O)(=O)c2ccc(C)cc2)cc1` was tested, and the Potency was inconclusive [inhibitor, partial curve].
`O=C(COc1ccc(Cl)cc1)Nc1c(-c2cccs2)nc2ccccn12` was tested, and the “activity, negative = inhibition” value was inactive: 2.89%.
In the case of `O=C(CN(C(=O)CNC(=O)c1cccs1)c1ccccc1F)NC1CCCC1`, the Potency is reported as inconclusive [inhibitor, partial curve].
`CN(Cc1cccs1)S(=O)(=O)c1ccc(Cl)cc1F` was tested, and the Potency was inconclusive [inhibitor, partial curve].
For `Cc1ccc(C2SCC(=O)N2Cc2ccccc2)cc1` (stereo not drawn), the Potency was inconclusive [inhibitor, partial curve].
In the case of `COc1ccc(S(=O)(=O)N2CCCCCC2)cc1Br`, the Potency is reported as inconclusive [inhibitor, partial curve].
For `O=c1[nH]c(Nc2ccccc2)cc2ccccc12`, the Potency was inconclusive [inhibitor, partial curve].
For `CCOC(=O)/C(=N\Nc1ccc(Br)cc1)N1CC(C)OC(C)C1` (stereo not drawn), the “activity, negative = inhibition” value was inactive: -15.7%.
In the case of `CCC1OC23CCCCC2C(C#N)(C(=N)O3)C1(C#N)C#N` (stereo not drawn), the Potency is reported as inconclusive [inhibitor, partial curve].
In the case of `O=S(=O)(c1ccc2c(c1)C(O)c1ccccc1CC2)C(F)(F)F` (stereo not drawn), the Potency is reported as inconclusive [inhibitor, partial curve].
With `CCOc1ccc(C=NNc2ccc(S(=O)(=O)Nc3ccccc3C(=O)O)cc2[N+](=O)[O-])cc1` the “activity, negative = inhibition” value was inactive: -16.2%.
`COc1cnc(-c2ccccn2)nc1Sc1ccc(C)cc1` was tested, and the Potency was inconclusive [inhibitor, partial curve].
For `CCOC(=O)CN1C(=O)S/C(=C/C=C/c2ccc(N(C)C)cc2)C1=O`, the Potency was inconclusive [inhibitor, partial curve].
In the case of `FC(F)(F)c1cc(CCN2C(=S)NC[C@@H]2Cc2ccccc2)cc(C(F)(F)F)c1`, the Potency is reported as inconclusive [inhibitor, full curve].
For `Cc1ccc(S(=O)(=O)CCSc2nc(C)cc(C)c2C#N)cc1`, the Potency was inconclusive [inhibitor, partial curve, poor fit].
With `O=S(=O)(NC1CCCCC1N1CCN(c2ccccc2F)CC1)c1ccccc1` (stereo not drawn) the Potency was inconclusive [inhibitor, full curve].
In the case of `CCNC(=S)N/N=C(\C)c1ccc(Cl)s1`, the “activity, negative = inhibition” value is reported as inactive: 16.1%.
`Cc1c(C(=O)c2ccc(Cl)cc2[N+](=O)[O-])c2ccccn2c1CCC#N` was tested, and the Potency was inconclusive [inhibitor, full curve, poor fit].
With `COC(=O)C1=CN(Cc2ccc(OC)c(OC)c2)C=C(C(=O)OC)C1c1ccccc1F` the Potency was inconclusive [inhibitor, full curve].
In the case of `Cc1cc(NC(=O)CC2CCCC2)ccc1Br`, the Potency is reported as inconclusive [inhibitor, single point].
In the case of `Cc1nc2ccc(NC(=O)c3ccc4ccccc4n3)cc2s1`, the Potency is reported as inconclusive [inhibitor, single point].
With `Cc1cc(C)n(-c2nc(C(F)(F)F)nc3ccccc23)n1` the Potency was inconclusive [inhibitor, single point].
In the case of `Cc1ccc(N2CCN(/N=C/c3c(C)nn(-c4ccccc4)c3Cl)CC2)cc1`, the “activity, negative = inhibition” value is reported as inactive: -16.6% [at 57.1 µM].
`CC1(C(=O)NS(=O)(=O)c2ccc(Cl)s2)CCN1C(=O)C1(c2ccccc2)CCCC1` (stereo not drawn) was tested, and the Potency was inconclusive [inhibitor, full curve].
With `Nc1ncnc2c1ncn2[C@@H]1O[C@H](CNCc2ccccc2OC2OC(CO)C(O)C(O)C2O)[C@@H](O)[C@H]1O` (stereo partly drawn) the “activity, negative = inhibition” value was inactive: 13.5%.
In the case of `O=C(CN1CCC(C(=O)c2cccc(Cl)c2)CC1)Nc1ccc(C(=O)O)cc1`, the Potency is reported as inconclusive [inhibitor, full curve].
In the case of `Nc1cc(=O)[nH]c(SCCSc2ccccc2F)n1`, the Potency is reported as inconclusive [inhibitor, partial curve].
`CCCCCc1c(-c2ccc(OC)cc2)ncn1CCc1ccccc1OC` was tested, and the Potency was inconclusive [inhibitor, partial curve].
With `Brc1ccc(Oc2nnnn2-c2ccccc2)cc1` the Potency was inconclusive [inhibitor, partial curve, poor fit].
For `CC(C)(C)NC(=O)CN(C(=O)Cn1nnc(-c2ccccc2F)n1)c1cccc2c1CCCC2`, the Potency was inconclusive [inhibitor, single point].
For `C[N+]1(CC(=O)OC2CCCCCCCCCCC2)CCCC1`, the “activity, negative = inhibition” value was inactive: 2.28%.
For `O=S1(=O)CCOC[C@H](CC2CCCCC2)N1Cc1cccc(Cl)c1`, the Potency was inconclusive [inhibitor, full curve, poor fit].
`NC(=O)c1ccc2c(=O)n3c(-c4cc(Cl)c(N)c(Cl)c4)csc3nc2c1` was tested, and the “activity, negative = inhibition” value was inactive: 41.2%.
With `COC(=O)CC(c1ccc(F)cc1)n1c(C)ccc1C` (stereo not drawn) the Potency was inconclusive [inhibitor, partial curve].
In the case of `CCOC(=O)CN1C(=O)C(CC)Oc2ccccc21` (stereo not drawn), the “activity, negative = inhibition” value is reported as inactive: 6.19%.
With `COc1cccc(C(=O)NCC(C)(C)SCc2ccc(F)cc2)c1` the Potency was inconclusive [inhibitor, partial curve].
`CCOc1ccc(C)cc1S(=O)(=O)NC1CCCCCC1` was tested, and the Potency was inconclusive [inhibitor, partial curve].
For `Brc1ccccc1OCCCOc1cccc2cccnc12`, the Potency was inconclusive [inhibitor, partial curve].
`Clc1ccccc1C1Nc2cccc3cccc(c23)N1` was tested, and the Potency was inconclusive [inhibitor, partial curve].
`COc1ccc(C(=O)C2=NN(C(C)=O)CC2c2ccco2)cc1` (stereo not drawn) was tested, and the Potency was inconclusive [inhibitor, partial curve].
With `CC1(Cc2ccccc2C#N)C(=O)Nc2ccc(OC(F)(F)F)cc21` (stereo not drawn) the Potency was inconclusive [inhibitor, partial curve].
`Cc1cccc(C)c1N=C1C(=O)Nc2ccccc21` was tested, and the Potency was inconclusive [inhibitor, partial curve].
In the case of `COc1ccc(-c2c(-c3ccc(OC)c(F)c3)c3ccccc3n2C)cc1`, the Potency is reported as inconclusive [inhibitor, full curve].
In the case of `CS(=O)(=O)c1ccc(C(=O)OCc2nnc(-c3ccccc3)o2)cc1[N+](=O)[O-]`, the “activity, negative = inhibition” value is reported as inactive: -15.3%.
`OC[C@@H]1CN(Cc2ccc3c(c2)OCO3)C[C@H](n2cnc3c(NC4CC4)ncnc32)O1` was tested, and the “activity, negative = inhibition” value was inactive: -1.29%.
In the case of `Cc1ccc(CNC(=O)COc2ccc(C)nc2[N+](=O)[O-])cc1`, the “activity, negative = inhibition” value is reported as inactive: 2.82%.
`Cn1nc(-c2ccccc2)c(CO)c1Sc1ccccc1` was tested, and the Potency was inconclusive [inhibitor, partial curve].
With `CNc1nc(-c2ccc(OC)cc2)c(-c2ccc(OC)cc2)s1` the Potency was inconclusive [inhibitor, partial curve].
